# Experimental data as given in PubChem BioAssay AID624296 (National Center for Advancing Translational Sciences (NCATS), 2012).
# In all, about 350,000 compounds went through this assay and about 9,900 (2.8%) were called active. This list was built around the results that the source calls inconclusive (neither active nor inactive); the mix of calls is not that of the screen. The call rests on the fitted dose curve; in most records, active means well fitted activation curve with a large enough effect; inconclusive means small, poorly fitted or top-dose-only effect; inactive means no such curve, though single readings can be large or run the other way. Potencies of inconclusive entries are left out as doubtful fits.
# Assay: A quantitative high throughput screen for small molecules that induce DNA re-replication in MCF 10a normal breast cells. Further: nearly all actives have a fitted effect of over 50% in size. On activity, positive = re-replication: % of control where 0% means no effect.
# Conditions: MCF 10A DNA re-replication, Hoechst nuclear intensity, 48 h; activity, positive = re-replication: at 46.1 µM (top of the series)
# Potency means the concentration at half of the fitted maximal effect; tags describe the fitted curve by direction and shape.
SMILES,Potency,"activity, positive = re-replication"
COc1cc(C(=O)NNC(=O)c2nn(C)c(=O)c3ccccc23)cc(OC)c1OC,inactive,
COC(=O)C1CCN(C(=O)COC(=O)c2oc3ccc(OC)cc3c2C)CC1,inactive,
COC(=O)c1nc(NC(=O)c2ccccc2Cl)n[nH]1,inactive,
COc1cccc(OC)c1OCCCOc1ccc([N+](=O)[O-])cc1Cl,"inconclusive [activator, single point]",
CC(CN1CCCCC1)OC(=O)c1ccc2c(c1)OCO2 (centres undefined),inactive,
COC(=O)C1=C(C)NC2=C(C(=O)CC(c3cccs3)C2)C1c1ccsc1 (centres undefined),"inconclusive [activator, single point]",
CCCC(=O)NC(=S)Nc1ccc(N2CCN(C(=O)c3cccs3)CC2)cc1,"inconclusive [activator, single point]",
CCCc1cc(=O)[nH]c(-n2[nH]c3c(c2=O)CCCC3)n1,inactive,
CCOC(=O)Cc1c(C)nc2c(-c3ccccc3)c[nH]n2c1=O,"inconclusive [activator, single point]",
CCCCNCCOc1ccccc1-c1ccccc1,"inconclusive [activator, partial curve, poor fit]",
O=C(NCc1nnc2c(C(F)(F)F)cc(Cl)cn12)c1cccnc1,"inconclusive [activator, single point]",
COc1ccc(C)cc1NC(=O)NC1CCN(Cc2ccccc2)CC1,inactive,
CCN(Cc1ccccc1)c1ccc(/C=N/NC(=S)NC(C)C)cc1,"inconclusive [activator, full curve]",
COc1ccc(NC(=O)c2cc(-c3ccc(C)c(C)c3O)n[nH]2)cc1Cl,active: 18.4 µM,
CC(=O)Nc1nnc(C2=COCCO2)o1,inactive,
O=C(COC(=O)c1cc(S(=O)(=O)N2CCOCC2)c(Cl)cc1Cl)NCc1ccco1,"inconclusive [activator, single point]",
Cc1ccc(Cl)cc1N1CCN(S(=O)(=O)c2ccc3c(c2)NC(=O)C(C)C(=O)N3)CC1 (centres undefined),active: 18.4 µM,
COc1ccc(-c2[nH]ncc2/C=N/NC(=O)c2ccncc2)c(OC)c1,"inconclusive [activator, single point]",
O=C(NCc1ccc(F)cc1)c1cc2c(s1)CS(=O)(=O)C2,"inconclusive [activator, partial curve, poor fit]",
O=S(=O)(c1ccc(F)c(F)c1F)N1CCN(C(=S)NCc2ccccc2)CC1,"inconclusive [activator, partial curve, poor fit]",
Cc1ccccc1C(=O)O/N=C/c1c(N2CCOCC2)n(C)c2ccccc12,"inconclusive [activator, partial curve, poor fit]",
Cc1ccc(N(CCC(=O)N2CCOCC2)S(=O)(=O)c2ccccc2)cc1,"inconclusive [activator, partial curve, poor fit]",
CCCC(=O)N1CCN(c2ccc(NC(=O)c3cc4ccccc4o3)cc2Cl)CC1,active: 6.51 µM,

SMILES,Potency,"activity, positive = re-replication"
CCC(=O)Nc1ccc(C(=O)NNC(=O)c2ccc(Cl)cc2)cc1,"inconclusive [activator, single point]",
CCOc1ccccc1/C=C(/NC(=O)c1ccccc1)C(=O)N1CCCCC1,inactive,
COc1cc(NC(=O)CCC2CCCC2)cc(-n2cnnn2)c1,inactive,
C=CCNC(=O)c1ccc(Sc2ccc(C)cc2)c([N+](=O)[O-])c1,"inconclusive [activator, full curve, poor fit]",
CCCCCC(=O)Nc1cc(S(=O)(=O)N2CCCCC2)ccc1N1CCCCC1,"inconclusive [activator, partial curve]",
COCCn1c(SCC(=O)Nc2cccc(S(N)(=O)=O)c2)nc2cc(Cl)ccc2c1=O,"inconclusive [activator, single point]",
COc1ccc(N2CCN(C(=O)c3ccccc3NC(=O)c3ccccc3)CC2)cc1,,inconclusive: 43.7% [activator]
CCOc1ccc(Br)cc1C(=O)Nc1ccc(C(=O)NCC(C)C)cc1,"inconclusive [activator, single point]",
CCOC(=O)Nc1nc(-c2ccccc2)c(C(=O)c2ccccc2)s1,active: 1.16 µM,
CCN1CCN(C(=O)CS(=O)(=O)Cc2nc(-c3cccc(OC)c3)oc2C)CC1,inactive,
N#Cc1c(NC(=O)CSC2=NCCS2)sc2c1CCCC2,"inconclusive [activator, partial curve, poor fit]",
Cc1ccc(-c2ccc(/C=C3\C(=O)ON=C3c3ccccc3)o2)c([N+](=O)[O-])c1,"inconclusive [activator, single point]",
Cc1ccc(Cn2ccc(NC(=O)c3c(-c4ccccc4Cl)noc3C)n2)cc1,inactive,
CN(CC(=O)Nc1ccc(Cl)c(C(F)(F)F)c1)C(=O)Cc1n[nH]c(=O)c2ccccc12,inactive,
CN(C)c1oc(/C=C/c2cccs2)nc1S(=O)(=O)c1ccccc1,active: 18.4 µM,
COc1cc2nc(SCc3ccc(Cl)cc3Cl)n(Cc3cccs3)c(=N)c2cc1OC,"inconclusive [activator, partial curve, poor fit]",
O=C(c1cccc(F)c1)N1CCN(c2ccc([N+](=O)[O-])c(N3CCOCC3)c2)CC1,"inconclusive [activator, partial curve, poor fit]",
CCc1ccc(-c2nn(-c3ccccc3)cc2CSC(=N)N)cc1,"inconclusive [activator, single point]",
NC(=O)C1=CC2C3C=CC2(O)C(=O)OC3O1 (centres undefined),active: 2.91 µM,
Cc1nc(Nc2ccc(Cl)cc2)c2nnn(Cc3ccccc3)c2n1,active: 23.1 µM,
COc1cccc(NC(=O)CN(C)CC(=O)Nc2ccc(C)c([N+](=O)[O-])c2)c1,"inconclusive [activator, single point]",
O=C(CCn1cccn1)N1CCCC(N2CCN(c3cccc(C(F)(F)F)c3)CC2)C1 (centres undefined),inactive,
CCCOc1ccc(N2C(=O)CC(N3CCN(c4nc5ccccc5s4)CC3)C2=O)cc1 (centres undefined),inactive,

SMILES,Potency,"activity, positive = re-replication"
CCn1ccnc1CN(C)C(=O)c1ccc(OC2CCN(CCc3ccccc3)CC2)cc1,"inconclusive [activator, single point]",
O=c1oc(-c2ccccc2Cl)nc2ccsc12,"inconclusive [activator, single point]",
COc1ccccc1/C=C/C=N/n1c(-c2cc(C)[nH]n2)n[nH]c1=S,inactive,
CC(=O)Nc1nc(-c2ccc([N+](=O)[O-])cc2)cs1,inactive,
Cn1c(O)c(N=NC(=O)c2cccc(S(=O)(=O)N3CCCCC3)c2)c2ccccc21,"inconclusive [activator, partial curve, poor fit]",
Cc1ccc(C)c(/C=N/n2cc(-c3ccccc3)[nH]c2=S)c1,"inconclusive [activator, single point]",
CC1CCC2C(=O)N(c3ccc(Cc4ccncc4)cc3)C(=O)C2C1 (centres undefined),inactive,
CCc1ccc2[nH]c(=O)c(CN(Cc3ccccc3OC)C(=O)Nc3ccccc3OC)cc2c1,"inconclusive [activator, partial curve]",
CSc1cc(C)c(OCC(=O)Nc2c(C)nn(C)c2C)c(C)c1,inactive,
O=C(N/N=C/C=C/c1ccco1)c1cccs1,"inconclusive [activator, single point]",
CC1CCCN(c2nc3ccccc3nc2C(C#N)S(=O)(=O)c2cccs2)C1 (centres undefined),"inconclusive [activator, single point]",
N#Cc1ccccc1N=C1CCCN1Cc1ccccc1,"inconclusive [activator, partial curve, poor fit]",
O=C(NC(=S)NC1CCCc2ccccc21)c1ccc(F)cc1 (centres undefined),"inconclusive [activator, partial curve, poor fit]",
Cc1ccc(S(=O)(=O)Nc2ccc(SC(F)F)cc2)c(C)c1,"inconclusive [activator, single point]",
CCOC(=O)CSc1ccc(-c2nc3cc(C)c(C)cc3[nH]2)cn1,inactive,
CSc1ccc(S(=O)(=O)NCC(=O)OCC(=O)N2CCC(C)CC2)cc1[N+](=O)[O-],"inconclusive [activator, single point]",
CCCCC(CCCC)=N/N=C/c1c(O)n(CC)c2cc(C3=NNC(=O)CC3)ccc12,"inconclusive [activator, partial curve]",
CCOC(=O)c1ccc(NC(=O)c2cc(C)nc3ccccc23)cc1,"inconclusive [activator, partial curve, poor fit]",
NNC(=O)c1nc(-c2cccc(-n3cccc3)c2)no1,"inconclusive [activator, partial curve, poor fit]",
COc1ccc(S(=O)(=O)NC(C)C(=O)Nc2ccc3c(c2)OCCO3)cc1OC (centres undefined),"inconclusive [activator, single point]",
Cn1nc(C(F)(F)F)c2cc(C(=O)Nc3ccc(F)cc3)sc21,"inconclusive [activator, single point]",
CCN(CC)c1ccc(C=C(c2nnnn2-c2ccc(C)cc2)c2nnnn2-c2ccc(C)cc2)cc1,"inconclusive [activator, full curve, poor fit]",
COc1cc2c(cc1OC)CN(CCC(C)c1ccc(Cl)cc1)CC2 (centres undefined),"inconclusive [activator, partial curve, poor fit]",
